Some of the results follow.
What follows are compounds tested on S. aureus RN4220 (assay: growth inhibition call (relative growth <= 0.2)). Details: 50 µM.
For `C=CCC[C@H](Cc1ccc(F)cc1)C(=O)OC[C@H]1CCCN1C(=O)[C@H](CC=C)CC(=O)N(CCO)Cc1ccccc1`, the growth inhibition call was “inactive”. `C[C@@H]1CCCCO[C@@H](CN(C)CC2CCCCC2)[C@@H](C)CN([C@H](C)CO)C(=O)c2cc(N(C)C)ccc2O1` was tested, and the growth inhibition call was “inactive”. `C[C@H]1CN([C@@H](C)CO)C(=O)c2cc(NC(=O)CCN3CCOCC3)ccc2O[C@H]1CN(C)Cc1ccncc1` was tested, and the growth inhibition call was “inactive”. With `C[C@@H]1CCCCO[C@H](CN(C)CC2CC2)[C@@H](C)CN([C@H](C)CO)C(=O)c2cc(NS(=O)(=O)c3cn(C)cn3)ccc2O1` the growth inhibition call was “inactive”. With `C[C@@H]1CCCCO[C@H](CN(C)S(=O)(=O)c2ccc(Cl)cc2)[C@H](C)CN([C@@H](C)CO)C(=O)c2cc(NS(=O)(=O)c3ccc(Cl)cc3)ccc2O1` the growth inhibition call was “inactive”. For `C[C@@H]1CN([C@H](C)CO)C(=O)c2cc(-c3ccc(C(=O)N(C)C)cc3)cnc2O[C@H]1CN(C)C(=O)CN(C)C`, the growth inhibition call was “inactive”. In the case of `CCC(=O)N(C)C[C@@H]1Oc2ncc(C#C[C@H](C)O)cc2C(=O)N([C@@H](C)CO)C[C@H]1C`, the growth inhibition call is reported as “inactive”. In the case of `C[C@@H]1CCCCO[C@H](CN(C)C(=O)Nc2cccc3ccccc23)[C@H](C)CN([C@@H](C)CO)C(=O)c2cc(NC(=O)CCC(F)(F)F)ccc2O1`, the growth inhibition call is reported as “inactive”. In the case of `C[C@@H]1CCCCO[C@H](CN(C)C(=O)Nc2ccc(C(F)(F)F)cc2)[C@@H](C)CN([C@H](C)CO)C(=O)c2cc(NS(C)(=O)=O)ccc2O1`, the growth inhibition call is reported as “inactive”. For `COc1ccc(NC(=O)N(C)C[C@@H]2Oc3c(NC(=O)Nc4ccc(C(F)(F)F)cc4)cccc3C(=O)N([C@@H](C)CO)C[C@@H]2C)cc1`, the growth inhibition call was “active”.
